Source: the supplement of paper PMC10126150
Values marked as one replicate rest on one cluster of the flow cell; about a third of the high ones do not repeat.

Tested on: ATP
Assay: switch fluorescence ratio, 500 uM ATP over buffer (Cy3 cluster intensity, sum of 5 cycles each) (fold (ratio)); higher = stronger signal-on switching upon ATP binding; sequences stand for … in TCGTCGGCAGCGTCAGATGTGTATAAGAGACAGTTTTTTTTTTTTTTTTTTTTTTTTT…TC
Conditions: aptamer strand: ATP DNA aptamer (quencher-CACCTGGGGGAGTATTGCGGAGGAAGG + anchor), 100 nM annealed; ATP concentration: 500 uM; one replicate
In short: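 Cy3-labelled switching-strand clusters on a modified Illumina MiSeq flow-cell were annealed to 100 nM quencher-labelled ATP aptamer, imaged in selection buffer, then imaged after 15 min with 500 uM ATP at 22 °C. Five buffer/ATP cycles ran, with NaOH stripping and re-annealing between them. The fluorescence ratio is summed target-cycle over summed buffer-cycle Cy3 intensity per cluster, averaged per switch-domain sequence. Clusters outside 100-1000 RFU were excluded.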
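Also: ATP exposure 15 min at 22 °C before imaging.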

TCGATAAGGT
switch fluorescence ratio: 1.01

CGATGGGTCC
switch fluorescence ratio: 1.08

GTCTAATGTT
switch fluorescence ratio: 1.01

TTCTCGCTTT
switch fluorescence ratio: 0.987

TAATAAAAGA
switch fluorescence ratio: 0.995

TGAATGGAGC
switch fluorescence ratio: 0.973

TTGTATAT
switch fluorescence ratio: 1.03

ACCATTTCGG
switch fluorescence ratio: 1.02

GATGAGTCCA
switch fluorescence ratio: 1.01

ACAGATCTGT
switch fluorescence ratio: 0.998

GAGATTAGGA
switch fluorescence ratio: 0.991

TTCACCGTAG
switch fluorescence ratio: 1.17

GGATGAACCC
switch fluorescence ratio: 0.999

GTCACCTCGC
switch fluorescence ratio: 1.12

TTTGTATATA
switch fluorescence ratio: 1

TTAGTTTAGC
switch fluorescence ratio: 0.908

TTGCACACCG
switch fluorescence ratio: 1.07

TAAGCTACCT
switch fluorescence ratio: 1.24

GGCCCAGTGG
switch fluorescence ratio: 1.1

TCTCCAGTCA
switch fluorescence ratio: 1.12

AAGATCTTTT
switch fluorescence ratio: 1

GGTTAGGGTT
switch fluorescence ratio: 0.978

TCACGGACCC
switch fluorescence ratio: 1.43

TTATCAGGTA
switch fluorescence ratio: 1.04

CCATAGCCGC
switch fluorescence ratio: 2.78

CCGAATTCAG
switch fluorescence ratio: 1.03

ACATATTATT
switch fluorescence ratio: 1.03

AATGAGAGCG
switch fluorescence ratio: 0.975

ACGTACAATT
switch fluorescence ratio: 1.33

TTACCGGGTT
switch fluorescence ratio: 1.05

AACCATACTT
switch fluorescence ratio: 1.2

CCACGCTTT
switch fluorescence ratio: 1.31

TCGCTGTAGT
switch fluorescence ratio: 1.05

CGTTTATAGA
switch fluorescence ratio: 1.05

ATTACTTTCC
switch fluorescence ratio: 1.75

TTATCCACCA
switch fluorescence ratio: 1.07

GTCCGTACAG
switch fluorescence ratio: 1.04

CTTACCTCAA
switch fluorescence ratio: 1.16

ATTAAGCCTC
switch fluorescence ratio: 0.997

ATAATGGTAG
switch fluorescence ratio: 0.993

CGTGTGCCCT
switch fluorescence ratio: 1.04

CAAGTTCAGT
switch fluorescence ratio: 1.01

ATGTTGGCAG
switch fluorescence ratio: 1.03

ACATTAATAG
switch fluorescence ratio: 1.02

AATTTCAAAA
switch fluorescence ratio: 0.995

AGTCGTGCAG
switch fluorescence ratio: 0.967

CGCTTGGTAG
switch fluorescence ratio: 0.994

ATGAGCGGGT
switch fluorescence ratio: 0.98

ACTCGGGTCA
switch fluorescence ratio: 1.02

AAACCCTGT
switch fluorescence ratio: 1.01

TTTTGGCCCG
switch fluorescence ratio: 1.03

AGACAGTGAG
switch fluorescence ratio: 0.983

CAGTGGCTCT
switch fluorescence ratio: 1.02

GCCCAGCCAA
switch fluorescence ratio: 1.02

CTAGGTGGTA
switch fluorescence ratio: 0.938

CGGGGAAGAA
switch fluorescence ratio: 0.994

TATCGTGGG
switch fluorescence ratio: 1.01

CAAGACCGTT
switch fluorescence ratio: 0.968

TTCAATGTTG
switch fluorescence ratio: 0.979

TAGGGCATAG
switch fluorescence ratio: 1.03

CGGCGCATTT
switch fluorescence ratio: 1.71

GCTGACTGTC
switch fluorescence ratio: 1.02

TTATAATGAG
switch fluorescence ratio: 1.02

CGGCAGGAAT
switch fluorescence ratio: 0.969

CACATAATTA
switch fluorescence ratio: 1.01

GACTGACATT
switch fluorescence ratio: 1.14

TTGAAGTAAT
switch fluorescence ratio: 1.31

GGTGTGTCGG
switch fluorescence ratio: 0.946

CGCAACCCTT
switch fluorescence ratio: 2.06

GGATGAGGAC
switch fluorescence ratio: 1.01

CTGAGTGTAT
switch fluorescence ratio: 1.01

GATTTTAAAA
switch fluorescence ratio: 1.08

CCGGTTCGCG
switch fluorescence ratio: 1.04

CTAGACAGG
switch fluorescence ratio: 0.986

TCCTCTCATA
switch fluorescence ratio: 2.56

AATGGCAATA
switch fluorescence ratio: 1.6

CGTTCGGGGC
switch fluorescence ratio: 1.09

CTTGCGACGT
switch fluorescence ratio: 1.16

CACAAAGGG
switch fluorescence ratio: 0.991

AACAGAACCG
switch fluorescence ratio: 1.14

CGCGTGTTCG
switch fluorescence ratio: 1.02

CAGTTCCGGG
switch fluorescence ratio: 1.07

GCTTATTAAT
switch fluorescence ratio: 0.984

CGCTGCTCTG
switch fluorescence ratio: 1.02

GAATGGCTAA
switch fluorescence ratio: 0.988

AATTGTGAGC
switch fluorescence ratio: 1.01

GCGATCGATA
switch fluorescence ratio: 1.08

TTATGTTAAC
switch fluorescence ratio: 1.02

TAGTGCGCAC
switch fluorescence ratio: 1

GTGTTCACCG
switch fluorescence ratio: 0.98

ACGCAAGGGG
switch fluorescence ratio: 1.48

ATTCTAAGAT
switch fluorescence ratio: 1.1

TGGGGTGACC
switch fluorescence ratio: 0.997

ACCGTGCTCA
switch fluorescence ratio: 1.04

TTCTGGATTG
switch fluorescence ratio: 0.976

GATCGCGTAA
switch fluorescence ratio: 1

AGTGTATCTC
switch fluorescence ratio: 0.987

AATTTGCCTC
switch fluorescence ratio: 1.02

AGATTGTGGC
switch fluorescence ratio: 0.963

TACGACTAGA
switch fluorescence ratio: 1.08

GTCACCTGCG
switch fluorescence ratio: 1.05

AGATATTAAG
switch fluorescence ratio: 0.978

GGCGCGCCGA
switch fluorescence ratio: 0.969

ACCCCGAGTG
switch fluorescence ratio: 2.74

ATAAACGG
switch fluorescence ratio: 1.04

GGCATTTGCG
switch fluorescence ratio: 0.93

CATCTAGCTT
switch fluorescence ratio: 1.08

CAACGGGGAA
switch fluorescence ratio: 1.07

GAGGTCTTA
switch fluorescence ratio: 0.959

CGTTATGTCC
switch fluorescence ratio: 1.03

GGAATATGCG
switch fluorescence ratio: 1.01

GGTTTGATCA
switch fluorescence ratio: 0.968

TCGTTCGATA
switch fluorescence ratio: 1.02

CCCACCCTCC
switch fluorescence ratio: 1.53

CATGTCGGGA
switch fluorescence ratio: 0.999

TGGCTCTAAT
switch fluorescence ratio: 1.01

CTGGAGGCT
switch fluorescence ratio: 1.06

GGTCTTCAA
switch fluorescence ratio: 0.968

ATTTCGGCTC
switch fluorescence ratio: 0.978

TTAGTCATAA
switch fluorescence ratio: 1.01

GTTTAAGCCA
switch fluorescence ratio: 1.02

GTTAGGTCCT
switch fluorescence ratio: 1.03

TTAGCGCTTA
switch fluorescence ratio: 1.03

CAGTAGTCTG
switch fluorescence ratio: 0.975

AAGATACATG
switch fluorescence ratio: 1.03

TCACTGAAGG
switch fluorescence ratio: 0.994

GAACGCAGAG
switch fluorescence ratio: 1.55

CGATGAGGCT
switch fluorescence ratio: 1.02

ATTAGGTGGC
switch fluorescence ratio: 0.997

GCTTCATGC
switch fluorescence ratio: 1.01

GTGTTCGCCT
switch fluorescence ratio: 1.02

TGTATAAATG
switch fluorescence ratio: 1.01

AAATGTTTAG
switch fluorescence ratio: 0.993

ATCACACCCG
switch fluorescence ratio: 1.17

CGGAAATCA
switch fluorescence ratio: 1.01

TACGCGGGAG
switch fluorescence ratio: 1.26

CGCGGTCTCG
switch fluorescence ratio: 1.09

GGAAGGGATA
switch fluorescence ratio: 1.01

GGGGTCATAA
switch fluorescence ratio: 1.01

GGACGTTCCA
switch fluorescence ratio: 0.979

TTTGAACATG
switch fluorescence ratio: 0.953

GGTGGTTTAC
switch fluorescence ratio: 1.05

GCCCCTCGTC
switch fluorescence ratio: 0.993

TATAGAGGCG
switch fluorescence ratio: 1.03

GGCCCTAATT
switch fluorescence ratio: 0.975

ATTCCTTTTC
switch fluorescence ratio: 0.923

TCTCCTCGTA
switch fluorescence ratio: 1.16

AGAGGCCGGA
switch fluorescence ratio: 0.872

AGAGACATGA
switch fluorescence ratio: 1

AGAATCTTGT
switch fluorescence ratio: 1.01

CGATACCGGA
switch fluorescence ratio: 1.02

CGAACTATGG
switch fluorescence ratio: 1

CAGGTGTTG
switch fluorescence ratio: 1.32

GCGCGAATTC
switch fluorescence ratio: 1.2

ACGCTAATTT
switch fluorescence ratio: 1.21

ATGTCGGGAG
switch fluorescence ratio: 1.02

ATGCCTACGT
switch fluorescence ratio: 1.04
